Data on 40 compounds can be found in PubChem BioAssay (NCATS).

The other results are listed elsewhere or left out. Shown are side measurements of this screen, not its main read-out; they come without a call. Most of these compounds were active or inconclusive in the main read-out, so they are no random draw.

A short description of the experiment: qHTS Assay for Lipid Storage Modulators (AID 1519). The conditions noted are these: Drosophila S3 cells, BODIPY lipid droplet/cell ratio, laser cytometry; measured here: cell count channel max response; cells loaded with oleic acid. In short, it runs like this: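 Cells seeded at 5,000 per well were treated with compounds over a concentration series and loaded with oleic acid (400 uM, as added). Lipid droplet fluorescence (488 nm excitation, 500-530 nm channel) was read by laser-scanning cytometry and normalized to 20 uM Triacsin C.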
In the case of `NS(=O)(=O)c1cc2c(cc1Cl)NC(C(Cl)Cl)NS2(=O)=O` (stereo not given), the max response was 20.8%.

Take `CC(=O)OC(C)(C)C1Cc2cc3ccc(=O)oc3cc2O1` (stereo not given): the max response was 10.5%.

Consider `CC(=O)N1CCC2(CC1)CCN(C(c1ccccc1)c1ccccc1)CC2`, for which the max response turned out to be 25.3%.

As for `COc1cc2nc(N3CCN(C(=O)[C@H]4CCCO4)CC3)nc(N)c2cc1OC`, the max response came to 56.5%.

On to `CN(C)Cc1ccccc1-c1cncnc1Nc1ccc(F)cc1`, for which the max response amounted to 19.9%.

On to `CC1OC(OCC2OC(Oc3c(-c4ccc(OCCO)c(OCCO)c4)oc4cc(OCCO)cc(O)c4c3=O)C(O)C(O)C2O)[C@@H](O)C(O)C1O` (stereo not given in full), for which the max response turned out to be 17.5%.

Take `O=C(c1csnn1)N1CCC2(CCN(Cc3nccs3)CC2)CC1`: the max response worked out at 28.4%.

Take `COCCn1c(=O)c(CCc2ccccc2)nc2cnc(OCc3ccccc3)nc21`: the max response was 14%.

`OC1C=C2CCN3Cc4cc5c(cc4C(C1O)C23)OCO5` (stereo not given): the max response came out at 16.3%.

Take `C=CCCCCCCCCCCCC(O)CC(O)COC(C)=O` (stereo not given) (tested in a mixture with another compound): the max response was determined as 12.7%.

In the case of `CN(C)CCC(c1ccccc1)c1ccccn1` (stereo not given), the max response turned out to be 11.5%.

Consider `C[C@H](N=C(NC#N)Nc1ccncc1)C(C)(C)C`, for which the max response is 120%.

Take `Oc1ccc2c(c1)OCC1c3cc4c(cc3OC21)OCO4` (stereo not given): the max response turned out to be 16.7%.

Consider `Cn1c(=O)[nH]c(=O)c2[nH]cnc21`, for which the max response worked out at 17.7%.

Turning to `OCCN1CC(O)C(O)C(O)C1CO` (stereo not given), the max response worked out at 20.7%.

For the compound `COc1ccc(-n2c(=O)c(C)nc3cncnc32)cc1`, the max response stood at 16.8%.

For the compound `Cc1noc(C)c1-c1cncnc1NC1CC1`, the max response came to 25.5%.

With `CN(C)C(=O)c1ccc(-c2cncnc2NCCN2CCOCC2)cc1`, the max response was found to be 28.6%.

`CNc1ncnc2ccc(-c3ccc4c(c3)OCO4)cc12`: the max response came to 18.3%.

In the case of `Cn1c(=O)c(-c2ccc(Cl)cc2)nc2cncnc21`, the max response worked out at 19.6%.

With `c1ccc(Nc2ncnc3ccc(-c4ccoc4)cc23)cc1`, the max response amounted to 14.3%.

With `COc1ccccc1CCn1c(=O)c(-c2cccs2)nc2cncnc21`, the max response worked out at 9.05%.

With `CC(=O)N1CCC2(CC1)CCN(c1ccccc1)CC2`, the max response was determined as 28.6%.

Consider `COc1ncc2nc(-c3ccc(Cl)cc3)c(=O)n(C)c2n1`, for which the max response came out at 17.1%.

For the compound `COc1ccc(-c2cc(=O)c3ccccc3o2)cc1OC`, the max response is 7.6%.

For the compound `CCCN1CC(CSC)C[C@H]2c3cccc4[nH]cc(c34)C[C@H]21` (stereo not given in full), the max response turned out to be 17.6%.

With `N#CCCn1c(=O)c(-c2ccc(Cl)cc2)nc2cnc(N3CCNCC3)nc21`, the max response amounted to 22%.

In the case of `CC(C)CN1CCCC2(CCN(C(=O)c3ccco3)CC2)C1`, the max response was 24.2%.

As to `O=c1c(O)c(-c2ccc(O)c(O)c2)oc2ccccc12`, the max response is -9.16%.

In the case of `COCCn1c(=O)c(-c2cccs2)nc2cnc(Oc3cccc(Cl)c3)nc21`, the max response worked out at 25.6%.

Turning to `COc1cccc(Cn2c(=O)c(-c3ccc(F)c(F)c3)nc3cncnc32)c1`, the max response came out at 27.2%.

`CN1CCN(c2ncc3nc(-c4cn(C)c5ccccc45)c(=O)n(C[C@H]4CCCO4)c3n2)CC1`: the max response turned out to be 29.2%.

As for `O[C@@H]1[C@@H]2c3cc4c(cc3CN3CCC(=C[C@@H]1O)[C@H]23)OCO4`, the max response is -18.7%.

Regarding `COC(=O)N1CCC2(CC1)CCN(c1ccncc1)CC2`, the max response was found to be 27.1%.

Take `CC(=O)OC1CC[C@@]2(C)C3CC[C@@]4(C)C(CC5O[C@@]6(CCC(C)CO6)C(C)C54)C3CC[C@@H]2C1` (stereo not given in full): the max response came out at 20.1%.

As to `COc1ncc2nc(-c3cc(F)cc(F)c3)c(=O)n(C3CC3)c2n1`, the max response was found to be 20.4%.

As to `CC1(C)C=Cc2c(cc3occ(-c4ccc5c(c4)OCO5)c(=O)c3c2O)O1`, the max response was 26.5%.

Turning to `COCCn1c(=O)c(-c2cccc(C#N)c2)nc2cnc(N3CCOCC3)nc21`, the max response came out at 33%.

`NC(=O)c1ccccc1-c1nc(-n2ccnc2)c2ccccc2n1`: the max response came out at 22.9%.

In the case of `N#Cc1ccc(CN2CCC3(CC2)CCN(C(=O)c2cnccn2)CC3)cc1`, the max response was determined as 11.8%.
